{
  "source": "PubChem BioAssay AID1030",
  "about": "(National Center for Advancing Translational Sciences (NCATS), 2008)",
  "note": "Among all 220,000 compounds or so, about 16,000 (7.3%) were called active. This list was built around the results that the source calls inconclusive (neither active nor inactive); the mix of calls is not that of the screen. The call rests on the fitted dose curve; in most records, active means well fitted inhibition curve with a large enough effect (not every such curve was filed as active); inconclusive means small, poorly fitted or top-dose-only effect, or another doubt; inactive means no such curve, though single readings can be large or run the other way. No potency is given beside an inconclusive call; the fits are too rough.",
  "data": [
    {"molecular_target": "Aldehyde dehydrogenase 1A1 (Homo sapiens) (UniProt P00352)", "sequence (P00352 whole entry, looked up)": "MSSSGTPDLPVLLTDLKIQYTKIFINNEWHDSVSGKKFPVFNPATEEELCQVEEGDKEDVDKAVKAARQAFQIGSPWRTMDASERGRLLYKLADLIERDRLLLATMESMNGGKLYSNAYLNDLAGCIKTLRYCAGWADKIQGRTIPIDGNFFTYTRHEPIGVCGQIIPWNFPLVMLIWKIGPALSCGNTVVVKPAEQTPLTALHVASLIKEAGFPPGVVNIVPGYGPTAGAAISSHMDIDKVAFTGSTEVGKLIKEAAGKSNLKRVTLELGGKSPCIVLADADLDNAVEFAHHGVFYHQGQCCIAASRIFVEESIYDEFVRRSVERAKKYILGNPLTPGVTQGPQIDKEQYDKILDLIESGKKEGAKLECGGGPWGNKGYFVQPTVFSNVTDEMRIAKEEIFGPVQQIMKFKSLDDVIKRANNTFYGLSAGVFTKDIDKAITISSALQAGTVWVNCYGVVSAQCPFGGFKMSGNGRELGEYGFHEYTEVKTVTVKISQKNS", "test": "qHTS Assay for Inhibitors of Aldehyde Dehydrogenase 1 (ALDH1A1); further: potency means the concentration at half of the fitted maximal effect; tags describe the fitted curve by direction and shape;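 on activity, negative = inhibition: plate controls were no enzyme wells and a reference inhibitor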", "details": "Purified ALDH1A1, NADH fluorescence, propionaldehyde substrate; series mostly up to 75.3 µM; activity, negative = inhibition: at the top concentration", "values": [
      {"compound": "Cc1c(NC(=O)C(C)OC(=O)c2ccc(Cl)nc2)c(=O)n(-c2ccccc2)n1C", "note": "(stereo not drawn)", "activity, negative = inhibition": "inactive: 8.4%"},
      {"compound": "Cn1cnnc1SCc1ccccc1", "activity, negative = inhibition": "inactive: 4.55%"},
      {"compound": "COc1cc(C2C(C(C)=O)=C(O)C(=O)N2CCN2CCOCC2)ccc1O", "note": "(stereo not drawn)", "Potency": "inconclusive [inhibitor, single point]"},
      {"compound": "CCNC(=S)N(CCc1c(C)[nH]c2ccc(C)cc12)Cc1cccs1", "Potency": "inconclusive [inhibitor, partial curve]"},
      {"compound": "CCc1ccc(-c2nc(C(N)=O)c3[nH]c(=O)n(-c4ccccc4OC)c3n2)cc1", "Potency": "inconclusive [inhibitor, single point]"},
      {"compound": "COC(=O)c1ccccc1NC(=O)c1ccc(Cn2cc(Cl)cn2)o1", "activity, negative = inhibition": "inactive: -1.77%"},
      {"compound": "C/C(=N\\NC(=O)C1CCCN(S(=O)(=O)c2ccccc2)C1)c1ccccn1", "note": "(stereo not drawn)", "Potency": "inconclusive [inhibitor, single point]"},
      {"compound": "CC(C)Cn1c2c(c(O)c(C(=O)Nn3c(Cc4ccccc4)nc4ccccc4c3=O)c1=O)CCCC2", "Potency": "inconclusive [inhibitor, single point]"},
      {"compound": "CN(C)c1ccc(N/C=C/C(=O)c2ccccc2)cc1", "Potency": "inconclusive [inhibitor, single point]"},
      {"compound": "Cc1ccc(-c2nc(SCC(=O)NCC3CCCO3)c(-c3ccccc3)[nH]2)cc1", "note": "(stereo not drawn)", "Potency": "inconclusive [inhibitor, single point]"},
      {"compound": "N[C@@H](CSS(=O)(=O)O)C(=O)O", "Potency": "inactive"},
      {"compound": "CCc1ccc(-n2c(=O)c3ccccc3n(CC(=O)C(C)(C)C)c2=O)cc1", "activity, negative = inhibition": "inactive: 5.45%"},
      {"compound": "CCN(C(=O)COC(=O)c1ccc(S(=O)(=O)N2CCCc3ccccc32)cc1)C1CCS(=O)(=O)C1", "note": "(stereo not drawn)", "activity, negative = inhibition": "inactive: 7.69%"},
      {"compound": "CC(C)c1ccc(S(=O)(=O)N2CCN(C(=O)c3cccc(F)c3)CC2)cc1", "Potency": "inconclusive [inhibitor, partial curve]"},
      {"compound": "COc1ccc(NC(=O)C(OC(=O)c2ccc([N+](=O)[O-])o2)c2ccccc2)cc1Cl", "note": "(stereo not drawn)", "Potency": "active: 2.51 µM"},
      {"compound": "Cc1ccc2c(C(=O)CN3CCN(C4CCCCC4)CC3)c(C)[nH]c2c1", "Potency": "active: 12.6 µM"},
      {"compound": "C/C(=N\\NC(=O)c1ccc(OC2OCCOC2Oc2ccc(C(=O)N/N=C(\\C)c3ccncc3)cc2)cc1)c1ccncc1", "note": "(stereo not drawn)", "Potency": "inconclusive [inhibitor, single point]"},
      {"compound": "CC1=Nc2ccccc2/C1=C/c1c(N)n2c(S(=O)(=O)CC(C)C)nsc2nc1=O", "activity, negative = inhibition": "inactive: -5.09%"},
      {"compound": "O=C(Cc1ccccc1)NCCc1cccc(Cl)c1", "Potency": "inconclusive [inhibitor, single point]"},
      {"compound": "C[C@H]1Cc2c(-c3ccccc3)nc3c(c2CO1)CN(C(=O)c1cc(I)ccc1F)CC3", "activity, negative = inhibition": "inactive: 18.1% [at 13.5 µM]"},
      {"compound": "NC(=O)c1c(NC(=O)COC(=O)CSc2nnc(-c3ccc(Cl)cc3)o2)sc2c1CCC2", "activity, negative = inhibition": "inactive: -15.2%"},
      {"compound": "O=C(c1ccc(N2CCCC2=O)cc1)N1CCCCCC1", "Potency": "inconclusive [inhibitor, single point]"},
      {"compound": "CCN(Cc1ccccc1)C(=O)COc1cc(=O)n(CC)c2ccccc12", "Potency": "inconclusive [inhibitor, partial curve]"},
      {"compound": "Cc1nc(NCc2ccccc2)sc1C(=O)Nc1ccccc1", "Potency": "inconclusive [inhibitor, partial curve]"},
      {"compound": "COc1ccc(S(=O)(=O)n2nc(OC(=O)C3CCCCC3)cc2N)cc1", "Potency": "active: 2 µM"},
      {"compound": "c1ccc(CNc2ccc3c(c2)ncn3C2CCCCC2)nc1", "Potency": "inconclusive [inhibitor, single point]"},
      {"compound": "CC(=O)Nc1ccc(S(=O)(=O)N2CC3(C)CC2CC(C)(C)C3)cc1", "note": "(stereo not drawn)", "Potency": "inconclusive [inhibitor, partial curve]"},
      {"compound": "CCCCC(=O)Nc1ccc(C(=O)NNC(=S)NC(=O)c2cccs2)cc1", "Potency": "active: 25.1 µM"},
      {"compound": "Cc1ccc(-c2cc3nc(-c4ccccc4)cc(N)n3n2)cc1", "Potency": "inconclusive [inhibitor, partial curve]"},
      {"compound": "CC(C)(CO)CNC(=O)c1ccc(OC2CCN(C(=O)C3CC3)CC2)cc1", "activity, negative = inhibition": "inactive: -1.41%"},
      {"compound": "O=C(COC(=O)c1cnccn1)NCc1ccc(Cl)cc1", "activity, negative = inhibition": "inactive: -11.7%"},
      {"compound": "CCN(CC)S(=O)(=O)c1cccc(S(=O)(=O)N2CCCCC2)c1", "Potency": "active: 3.55 µM"},
      {"compound": "CC1(C)O[C@@H]2O[C@H]([C@@H]3COC(C)(C)O3)[C@H](N)[C@H]2O1", "activity, negative = inhibition": "inactive: -2.56% [at 13.5 µM]"},
      {"compound": "O=C(Nc1cccc(OC(F)(F)F)c1)c1ccc(Br)o1", "Potency": "active: 22.4 µM"},
      {"compound": "CC1CCCCC1NC(=O)CN1C(=O)c2cccc(N)c2C1=O", "note": "(stereo not drawn)", "activity, negative = inhibition": "inactive: -5.61%"},
      {"compound": "CCC(c1nnnn1C(C)(C)CC)N(CCCN1CCOCC1)Cc1cc2cccc(C)c2[nH]c1=O", "note": "(stereo not drawn)", "Potency": "inconclusive [inhibitor, single point]"},
      {"compound": "Cc1ccc(C(=O)C[n+]2cc(Br)cc(Br)c2)cc1", "Potency": "inconclusive [inhibitor, partial curve]"},
      {"compound": "C/C(=N\\NS(=O)(=O)c1ccc(C)cc1)c1ccc(C)s1", "Potency": "active: 17.8 µM"},
      {"compound": "COc1cccc(C(=O)Nc2ccc(NC(C)=O)cn2)c1", "activity, negative = inhibition": "inactive: 4.16%"},
      {"compound": "CCOC(=O)C1(Cc2cccc(OC)c2)CCN(Cc2cccnc2)CC1", "activity, negative = inhibition": "inactive: -10.2%"},
      {"compound": "Cc1cccc(-c2nnnn2-c2cccc(C)c2)c1", "Potency": "active: 4.47 µM"},
      {"compound": "O=C(CCS(=O)(=O)Cc1ccccc1)Nc1nc2c(s1)CCCC2", "Potency": "inconclusive [inhibitor, single point]"},
      {"compound": "CCOC(=O)c1nn(-c2ccc(Cl)cc2)c2nc(CC)c(C#N)c(=O)n12", "Potency": "inconclusive [inhibitor, single point]"},
      {"compound": "CCOC(=O)c1sc(C)nc1C1CCN(C(=O)OCC)CC1", "Potency": "inconclusive [inhibitor, single point]"},
      {"compound": "Cc1cc(C)c(S(=O)(=O)/N=C2/C=C(Sc3ncn[nH]3)C(=O)c3ccccc32)cc1C", "Potency": "active: 1.78 µM"},
      {"compound": "CC1=CC(C)(C)Nc2ccc(OC(=O)c3ccco3)cc21", "activity, negative = inhibition": "inactive: 5.26%"},
      {"compound": "Cc1ccc(C(=O)ON=C2CCN(S(=O)(=O)c3ccccc3)CC2)cc1", "Potency": "inconclusive [inhibitor, single point]"},
      {"compound": "COC(=O)CNC(c1ccccc1)c1cc(Cl)ccc1NC(=O)c1cccc(Cl)c1", "note": "(stereo not drawn)", "activity, negative = inhibition": "inactive: -5.55%"},
      {"compound": "COc1ccc(C2C(C(=O)/C=C/c3ccco3)=C(O)C(=O)N2CCN2CCOCC2)cc1OC", "note": "(stereo not drawn)", "Potency": "inconclusive [inhibitor, single point]"},
      {"compound": "COc1ccc(/C=N/NC(=O)C2C3CCCCC32)cc1OC", "note": "(stereo not drawn)", "Potency": "inconclusive [inhibitor, single point]"},
      {"compound": "Cc1cc2oc3c(c(=O)c2cc1C)C(c1ccc(C(C)C)cc1)N(CCCN1CCOCC1)C3=O", "note": "(stereo not drawn)", "Potency": "active: 3.98 µM"},
      {"compound": "Cc1ccc2c(c1)CCCN2C(=O)Nc1ccc2c(c1)OCO2", "Potency": "inconclusive [inhibitor, single point]"},
      {"compound": "COc1ccc2c(c1OC)C(=O)OC2Nc1nc(-c2ccc(-c3ccccc3)cc2)cs1", "note": "(stereo not drawn)", "Potency": "inconclusive [inhibitor, single point]"},
      {"compound": "COC(=O)c1ccc(CSc2nnc(CNC(=O)c3cccs3)o2)o1", "Potency": "inconclusive [inhibitor, single point]"},
      {"compound": "COC(=O)C(N)Cc1ccc(O)cc1", "note": "(stereo not drawn)", "activity, negative = inhibition": "inactive: 9.4%"},
      {"compound": "COc1ccc(C(=O)NC(=S)Nc2ccc([N+](=O)[O-])cc2C)cc1OC", "Potency": "active: 14.1 µM"},
      {"compound": "O=C(O)CCCNC(=O)/C=C/c1ccco1", "Potency": "active: 22.4 µM"},
      {"compound": "COC(=O)c1ccc(C2c3c(oc4cc(C)c(C)cc4c3=O)C(=O)N2CCCN(C)C)cc1", "note": "(stereo not drawn)", "Potency": "inconclusive [inhibitor, partial curve]"},
      {"compound": "CCOC(=O)c1c(C)[nH]sc1=S", "Potency": "inconclusive [inhibitor, single point]"},
      {"compound": "CCCCN(C)CCC(=O)Nc1ccc(F)c(F)c1", "activity, negative = inhibition": "inactive: 3.39%"},
      {"compound": "CS(=O)(=O)N1CCC(C(=O)NCCC2=CCCCC2)CC1", "Potency": "inconclusive [inhibitor, single point]"},
      {"compound": "Cc1ccc(S(=O)(=O)Nc2cc(=O)[nH]c(SCc3ccc(Cl)cc3)n2)cc1", "Potency": "inconclusive [inhibitor, single point]"},
      {"compound": "COC(=O)c1ccc2c(=O)n(CCCN3CCCC3=O)c(=S)[nH]c2c1", "Potency": "inconclusive [inhibitor, partial curve]"},
      {"compound": "CCc1nnc(NS(=O)(=O)c2ccc(N/C=C\\C(=O)c3ccc4ccccc4c3)cc2)s1", "Potency": "inconclusive [inhibitor, partial curve]"},
      {"compound": "O=C(NNc1ccccc1C(F)(F)F)c1sccc1Br", "Potency": "inconclusive [inhibitor, single point]"},
      {"compound": "Cn1nc(CC(=O)NC2CCCCC2)c2ccccc2c1=O", "Potency": "inconclusive [inhibitor, partial curve]"},
      {"compound": "C=CCn1c(O)c(N=NC(=O)CNC(=O)c2cccs2)c2ccccc21", "activity, negative = inhibition": "inactive: -1.73%"},
      {"compound": "Cc1cc2cc(C=C(C#N)C#N)c(Cl)nc2cc1C", "Potency": "inconclusive [inhibitor, partial curve, poor fit]"},
      {"compound": "O=C(NC(=S)Nc1nc(-c2cccc3ccccc23)cs1)c1cc2ccccc2o1", "Potency": "active: 20 µM"},
      {"compound": "Cc1ccc(CN(c2ccc(C(=O)NCC3CCCO3)cc2)S(C)(=O)=O)cc1", "note": "(stereo not drawn)", "activity, negative = inhibition": "inactive: -0.577%"},
      {"compound": "C/C(CCN1CCCc2nc(C)c(C)cc21)=N\\O[C@@H](C)CN1CCCCc2nc(C)c(C)cc21", "activity, negative = inhibition": "inactive: -0.294% [at 13.5 µM]"},
      {"compound": "CCNS(=O)(=O)c1ccc(NC(=O)c2cc(C(F)(F)F)nn2C)cc1", "Potency": "inconclusive [inhibitor, single point]"},
      {"compound": "Cn1nc(-c2ccc(Cl)cc2)c2cc(C(=O)NCCN3CCOCC3)sc21", "Potency": "inconclusive [inhibitor, partial curve]"}
    ]}
  ]
}
